The whole screen tested about 52,000 compounds, of which about 4,300 (8.3%) were called active. Cut-off read from the data, not from the text of the source: active = survival mostly below about 52% (no sharp cut-off); inactive = mostly above about 56%. The list shows a part of the results.
tested on: DeltatarO mutant; test: S. aureus survival, RN4220 and DeltatarO strains – OD600, teichoic acid synthesis inhibitors, primary screen (AID 463173); details: S. aureus RN4220 wild type/DeltatarO growth, OD600, 18 h, active compounds read low, screened at 18.75 µg/mL (by protocol)

SMILES	survival
COc1ccc(-c2cc(C)nc3c(-c4ccc(OC)c(OC)c4)c(C)nn23)cc1	inactive: 63%
COc1cc(NC(=O)c2ccccc2)c(OC)cc1NC(=O)CN1CCCCC1	inactive: 75%
N#Cc1cn(CC(=O)NCc2ccccc2)c2ccccc12	inactive: 87%
CSc1ccc(-c2nc3ccc(C)cn3c2Nc2ccccc2C)cc1	inactive: 116%
Cc1cccc(-c2nnn3c2nc(NCCc2ccc(S(N)(=O)=O)cc2)c2cc(Cl)ccc23)c1	inactive: 67%
CS(=O)(=O)N(CC(=O)NCCc1ccccc1)c1cc(C(F)(F)F)ccc1Cl	inactive: 68%
COc1ccc(CN2C(=O)C(C)Oc3ccccc32)cc1 (stereo not drawn)	inactive: 91%
COC(=O)c1ccc(OC)c(Cn2c(=O)n(Cc3ccccc3)c(=O)c3c2c2cc(OC)ccc2n3C)c1	inactive: 77%
O=C(CN1CCC(O)(c2ccccc2)CC1)NC1CCCCC1	inactive: 88%
CC1CCCC(C)N1C(=O)CSc1nc(N)c(-c2ccccc2)c(=O)[nH]1 (stereo not drawn)	inactive: 88%
O=C1CCCc2cc(S(=O)(=O)NCC3CCC(C(=O)Nc4ccccc4F)CC3)ccc2N1 (stereo not drawn)	inactive: 93%
Fc1cc(Br)ccc1Nc1c2c(nc3nc(-c4cccs4)nn13)CCCC2	active: 8%
CC(NC(=O)c1ccccc1NC(=O)c1nsc2ccccc12)c1ccccc1 (stereo not drawn)	inactive: 118%
COc1ccc(OC)c(CCNc2ncnc3onc(-c4ccc(F)cc4)c23)c1	inactive: 91%
CSc1nn(Cc2ccc(Cl)cc2)c(N(C(C)=O)C(C)=O)c1S(=O)(=O)c1ccccc1	inactive: 67%
CCc1ccc2oc(C(=O)Nc3cccc(C(F)(F)F)c3)cc(=O)c2c1	inactive: 53%
Cc1ccc(NC(=O)c2cc(C)nc3c2c(C)nn3-c2cccc(Cl)c2C)c(C)c1	active: -5%
C#CCOc1ccc(-c2nnc(Nc3cccc(C)c3)c3ccccc23)cc1	active: 31%
Cc1ccc(NS(=O)(=O)c2ccc3[nH]c(=O)ccc3c2)cc1N(C)C	inactive: 66%
COc1ccc(-c2ccc(=O)n(CC(=O)Nc3ccc(C)cc3C)n2)cc1	inactive: 81%
COc1ccc(-c2noc(CCC(=O)NCc3ccc(C)cc3)n2)cc1	inactive: 103%
O=c1n(Cc2cccc(C(F)(F)F)c2)c2ccccc2c2nc(-c3ccccc3)nn12	inactive: 80%

SMILES	survival
Cc1ccc(-c2ccc(CCC(=O)O)n2-c2cccc(O)c2)cc1	inactive: 68%
CCOC(=O)c1cccc(NC(=O)Cn2ncc3c4ccccc4n(Cc4ccccc4)c3c2=O)c1	inactive: 88%
Cc1ccc(CNC(=O)CCCCCn2c(=O)c3sccc3n(CC(=O)N(C)c3ccccc3)c2=O)cc1	inactive: 82%
Cc1ccc(C(=O)Nc2ccc3oc(-c4ccc(C(C)(C)C)cc4)nc3c2)cc1	inactive: 70%
CCCN1C(=O)C(NC(C)=O)c2cc(C)ccc21 (stereo not drawn)	inactive: 89%
CCn1c(=O)cc(SCC(=O)NCCc2ccc(Cl)cc2)c2ccccc21	inactive: 76%
CCOC(=O)C1CCC(CN(Cc2ccc(Cl)cc2)S(=O)(=O)c2ccc(F)c(C(=O)Nc3cccc(F)c3)c2)CC1 (stereo not drawn)	inactive: 92%
COc1ccc(/C=C/C(=O)Nc2sc3c(c2C(N)=O)CCCC3)cc1	inactive: 58%
COc1cccc2sc(=NC(=O)c3ccc(S(=O)(=O)N4CCCCC4)cc3)n(C)c12	inactive: 101%
CCOC(=O)c1cnc(NCc2ccccc2OC)c2ccccc12	inactive: 89%
COc1ccc(S(=O)(=O)N2CCCCC2)cc1C(=O)Nc1cccc(C(F)(F)F)c1	inactive: 86%
COc1ccccc1Nc1cc(C(=O)NC2CCCC2)c2ccccc2n1	inactive: 77%
CCn1cc(C(=O)NCc2ccccc2OC)c(=O)c2cc(S(=O)(=O)N3CCCCC3)ccc21	inactive: 89%
COc1ccccc1CN1COc2ccc3c(oc(=O)c4ccccc43)c2C1	inactive: 78%
COc1ccc(-n2nc3c(N4CCCC(C(=O)NCc5cccc(F)c5)C4)nnc(C)c3c2C)cc1 (stereo not drawn)	inactive: 94%
COc1ccc(Cn2c(C(=O)O)c(CNCCc3cccs3)c3ccc(C)cc32)cc1	inactive: 78%
COc1ccccc1CNC(=O)c1ccc2c(c1)N(Cc1cccc(Cl)c1)C(=O)c1ccccc1S2(=O)=O	active: 37%
Cc1ccc(Cn2c(C(=O)O)c(CNC3CCCCCC3)c3ccc(C)cc32)cc1	inactive: 71%
Cc1ccc(NC(=O)Cn2c(=O)n(CCC(=O)N3CCc4ccccc4C3)c(=O)c3ccccc32)cc1	inactive: 76%
Cc1cc(C)cc(S(=O)(=O)Nc2cccc(-c3ccc(N4CCOCC4)nn3)c2)c1	inactive: 86%
CC(=O)c1ccc(NC(=O)Cn2c(=O)c3cccn3c3ccccc32)cc1	active: 42%
CC(C)(C)C(=O)NCCc1nc2ccccc2n1CCCCOc1ccc(Cl)cc1	active: 18%

SMILES	survival
Cn1c(=O)c2c([nH]c(=O)n2Cc2ccc(Cl)cc2Cl)n(C)c1=O	active: 42%
Cc1ccc2c(c1)-c1nc(-c3ccc4c(c3)NC(=O)CO4)cc(-c3ccc(Cl)cc3)c1CO2	inactive: 102%
Cc1ccc2nc(N3CCN(C(=O)C4CC4)CC3)sc2c1	inactive: 88%
Cc1ccc(NS(=O)(=O)c2ccc3nc(-c4ccccc4)[nH]c3c2)c(Cl)c1	inactive: 76%
CC1CCCN(CCCNC(=O)c2cn(C)c3ccc(S(=O)(=O)N(C)C4CCCCC4)cc3c2=O)C1 (stereo not drawn)	inactive: 93%
Cc1ccc(C)c(OCCn2cc(C(=O)c3ccco3)c3ccccc32)c1	inactive: 104%
CCn1c(CNC(=O)C23CC4CC(CC(C4)C2)C3)nnc1SCC(=O)Nc1ccccc1	inactive: 66%
COc1cccc(CNC(=O)c2cc3c(s2)-c2c(C)cccc2OC3)c1	inactive: 68%
COc1ccc(-c2nc(CNS(=O)(=O)c3ccccc3)cs2)cc1	inactive: 106%
Cc1oc2ncn(C)c(=O)c2c1C(=O)N1CCN(c2ccccc2)CC1	inactive: 103%
O=C(Oc1ccc(F)cc1)c1nc(SCc2ccccc2F)ncc1Cl	inactive: 75%
COc1ccccc1C(=O)NC1(C(F)(F)F)C(=O)Nc2c1c(=O)[nH]c(=O)n2-c1ccccc1 (stereo not drawn)	inactive: 78%
O=C(Nc1ccc(Cl)cc1Cl)c1cc(S(=O)(=O)N2CCc3ccccc32)ccc1F	inactive: 82%
Cc1cccc(N2CCN(C(=O)c3c(C)oc4ncnc(N5CCCCC5)c34)CC2)c1C	inactive: 76%
Cc1ccc(C)c(Nc2nc3c(S(=O)(=O)c4ccc(C(C)C)cc4)nnn3c3ccsc23)c1	inactive: 55%
CCOC(=O)c1noc2nc(C)n(CC(=O)Nc3ccccc3F)c(=O)c12	inactive: 122%
CCOC(=O)c1ccccc1NC(=O)c1cc2c(=O)oc3ccc(C)cc3c2s1	inactive: 72%
CC1=C(C(=O)N2CCN(c3cccc(C(F)(F)F)c3)CC2)C2(CCCCC2)OC1=O	inactive: 124%
COC(=O)c1c(Oc2ccc(C(C)=O)cc2)nnc(-c2ccccc2)c1-c1ccccc1	inactive: 64%
COc1ccccc1CNC(=O)CN1C(=O)CSc2ccc(S(=O)(=O)N3CCCCC3)cc21	inactive: 74%
COc1ccc(OC)c(-n2cnc3cc(C(=O)NC4CCCCCC4)ccc32)c1	inactive: 87%
COc1ccccc1NC(=O)c1cnc(SCC(=O)N2CCCc3ccccc32)n(C)c1=O	inactive: 76%

SMILES	survival
CC(C)CN(CCCNC(=O)CN1C(=O)CSc2ccc(S(=O)(=O)N3CCOCC3)cc21)CC(C)C	inactive: 88%
CCOc1ccc(CNC(=O)CSc2nnc(C)c3c(C)n(-c4ccccc4)nc23)cc1	inactive: 82%
COc1ccc(C(C(=O)NC2CCCC2)N(C(=O)c2ccco2)c2ccc(NC(C)=O)cc2)cc1OC (stereo not drawn)	inactive: 86%
Cc1ccccc1CCNC(=O)c1ccc2c(c1)c(C)c(C)n2Cc1ccccc1	inactive: 102%
COc1ccc(S(=O)(=O)n2ccnc2)cc1C(C)(C)C	inactive: 68%
CCc1ccccc1N1C(=O)N(Cc2ccccc2C)c2ccccc2S1(=O)=O	inactive: 84%
COc1ccc(OC)c2sc(N3CCN(C(=O)C4CC4)CC3)nc12	active: -5%
CCOC(=O)c1c(S(=O)(=O)N2CCCC(C(=O)N(C)Cc3ccccc3)C2)c(C)n(C)c1C (stereo not drawn)	inactive: 92%
COc1cc(NC(=O)Cn2ccn(Cc3ccccc3OC)c(=O)c2=O)cc(OC)c1	inactive: 52%
COC(=O)c1cc2c(cc1NC(=O)c1c(C)nn(-c3ccc(C)cc3)c1-n1cccc1)OCO2	inactive: 99%
Cc1cccc(-n2c(-c3ccco3)nc3c(cnn3-c3ccccc3C)c2=O)c1	inactive: 132%
Cc1ccc(C(c2sc3nc(-c4ccco4)nn3c2O)N2CCOCC2)cc1 (stereo not drawn)	inactive: 80%
O=C(CN1CCN(Cc2ccc(F)cc2Cl)S1(=O)=O)Nc1ccc(F)cc1	inactive: 134%
Clc1cc2c(cc1Cl)Nc1cc(Cl)c(Cl)cc1N2	inactive: 70%
Cc1ccc(Cn2nc(C)c(NC(=O)c3cc(-c4ccc(F)cc4)on3)c2C)cc1	inactive: 61%
Cc1nn(C(=O)c2ccccc2)c(C)c1Sc1ccc(Cl)cc1	active: 10%
CCOc1ccc(NC(=O)Cn2c(=O)oc3cc(S(=O)(=O)NC4CCCC4)ccc32)cc1	inactive: 69%
Cc1ccc(NC(=O)Cn2c(C)cc(C)c(C#N)c2=O)cc1	inactive: 94%
Cc1cccc(Cn2c(C)c(C)c3cc(C(=O)NCc4ccco4)ccc32)c1	inactive: 94%
COC(=O)CN(c1ccccn1)S(=O)(=O)c1ccccc1	inactive: 103%
CC(=O)Nc1ccccc1OCc1cc(=O)n2c3c(sc2n1)CCCC3	inactive: 120%
Cn1c2ccccc2c2cnn(CC(=O)NCc3ccc(Cl)cc3)c(=O)c21	inactive: 84%

Reference: PubChem BioAssay AID463173 (ICCB-Longwood Screening Facility, Harvard Medical School, 2010)
